Assay results reported in a collection of fitness landscapes (doi:10.1016/j.celrep.2020.107928).
The full ranking holds about 81,000 sequences; the median of “one-hybrid fitness for binding NBS DNA” is about -0.1, and the highest 2% start at about 0.36. The list shows a part of the results.

B1: Caulobacter ParB omega fusion; a variant is named by its letters at X, in order, B8GW30 (parent)
chain: MESVVVGEPGMSEGRRGLGRGLSALLGEVDAAPAQAPGEQLGGSREAPIEILQRNPDQPRRTFREEDLEDLSNSIREKGVLQPILVRPSPDTAGEYQIVAGERAWRAAQRAGLKTVPIMVRELDDLAVLEIGIIENVQRADLNVLEEALSYKVLMEKFERTQENIAQTIGKSXSHVANXMRLLXLPDEVQSYLVSGELTAXHARAIAAAADPVALAKQIIEGGLSVRETEALARKAPNLSAGKSKGGRPPRVKDTDTQALESDLSSVLGLDVSIDHRGSTGTLTITYATLEQLDDLCNRLTRGI

Variants of: B1
Test: one-hybrid fitness for binding NBS DNA (the Noc-binding site; scaled: cognate 1, non-cognate 0); higher = stronger binding
Settings: with NBS DNA site
Summary of the method: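 Bacterial one-hybrid selection in E. coli USO rpoZ- hisB- pyrF- with a HIS3 reporter carrying the site 19 bp from the promoter, screening Caulobacter ParB libraries with four specificity codons randomised (NNS). Cells grew 48 hours at 37°C on M9-minus-histidine plus 0.1 mM IPTG and 5 mM 3-AT. Plasmids before and after selection were Illumina-sequenced, three replicate libraries pooled, and variants under 10 reads dropped. Fitness is the log change in variant-to-wild-type read ratio, rescaled to cognate 1, non-cognate 0.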

one-hybrid fitness for binding NBS DNA, 0.269:
RYWR
RMWS

one-hybrid fitness for binding NBS DNA, 0.2:
LMRR

one-hybrid fitness for binding NBS DNA, 0.286:
QQRD

one-hybrid fitness for binding NBS DNA, ≤ 0.2:
PHTK
YLVC
KVDG
RPTR
NRFE
AQMC
PYAF
TDPN
PTVF
ATLI
AQPR
YFVV
MCVM
MPNT
GQLG
YAMG
KNCS
RKKD
RWPG
SYHM
GEMK
KAYW
WSME
WATT
PHYI
MSVP
RVKD
SSCG
ASSE
AGCS
ADCS
WSFT
LPAI
MVLC
DLIE
WHVT
AAAD
QVDI
ISDT
TVNL
TVPF
LEPP
YAKG
HKFG
DTIT
KCMY
DSYL
VLRH
WELE
HRVF
SWCC
CDKR
PSTG
LSCI
CTDR
GKRL
TVDW
NHAR
QLVG
IFKD
LLVI
MDKR
QIWA
RHCC
DRHK
NGFT
SVLG
PMWM
GAVD
EQLL
MKNR
ETQL
VVYT
VSSM
PGLF
KEPK
HWAA
SWEW
SFPP
AHDC
RDLI
VAVR
VTTM
TMRA
NLMG
SNDI
EIMC
QGPI
ANEK
ADDM
VTAL
QSTP
YAKV
TVWH
APKQ
EYFF
KKVR
YRSY
PFVV
LGCS
FALI
RPYM
AMSM
IEIF
TKPF
YTMR
NKQN
HPTS
RYCV
ANII
FKAS
ASMD
IRWG
RHVH
CPPQ
GAES
ALPW
QYYV
IFGR
RDPA
VTKS
HDDI
AAPV
AYPC
MRLW
VVTW
CFRY
RQTF
VAPW
PLME
IRVT
SYLL
FDAF
RPGC
SAVK
TLQD
QCCL
LCYK
SGES
RWFT
KTIG
PRNP
EVYG
CGQH
LCNE
SGDI
DNRK
PPYC
GLRN
PFDG
YRKS
AEWT
AAPI
RDEI
ASQI
KEHS
DRHR
GFRT
DWVR
INMD
PYHI
TDVM
IQFV
YWDR
HFLC
TCSA
WAQL
REPG
FRHM
KLMS
YHQL
PYAM
DVIC
QCCG
PKKY
RIPR
ACWN
WWTS
FEHS
ILPI
QFLI
TPVA
AHRI
AYMS
WVNV
CYYS
ASYW
LAIM
AMKS
YPCR
GNHC
QDPI
QQVF
SSWA
CTAS
DRRY
QGMA
MSMG
SRLP
DLVE
QLDC
GPNL
TDQW
LNAR
SGRS
PSIN
REKM
VVAS
PMIR
IGGG
TGKH
QFDY
VFTM
NDLF
ASAG
ARFI
MCIG
YDTR
PRQE
CSQV
HMPS
EQPK
MVVC
VAHI
FSKK
CSLP
ARQA
TWHI
LRDN
PSTD
VALS
YLNE
MLWC
SVCF
HTWM
FVGT
ASFS
TYHC
KGRS
RLMV
GYKM
KSAS
QFCT
GNSR
TCYG
IKWW
WIHG
AWRM
SKYP
RFLI
TWAR
MWVG
LFVT
QIHI
QCPN
PIHR
PDNS
CWQL
NRIV
SWRS
GFDS
AYND
SAKV
LVLH
EKSG
SCQR
LMVP
YVLT
YTGF
QKTY
FRQT
VGKI
SSAK
QHDC
ITMT
EWDG
EAVM
RFIV
AGTG
CPHG
MHMT
AWHM
ATCS
LCMS

one-hybrid fitness for binding NBS DNA, 0.989:
QHRR

one-hybrid fitness for binding NBS DNA, 0.237:
RAVT

one-hybrid fitness for binding NBS DNA, 0.573:
QRKN

one-hybrid fitness for binding NBS DNA, 0.503:
RSNT

one-hybrid fitness for binding NBS DNA, 0.221:
RHWT

one-hybrid fitness for binding NBS DNA, 0.477:
QRSY

one-hybrid fitness for binding NBS DNA, 0.566:
QKGT

one-hybrid fitness for binding NBS DNA, 0.44:
QHKV

one-hybrid fitness for binding NBS DNA, 0.574:
QIKT

one-hybrid fitness for binding NBS DNA, 0.55:
KRCR

one-hybrid fitness for binding NBS DNA, 0.318:
PFTM

one-hybrid fitness for binding NBS DNA, 0.425:
KKKS

one-hybrid fitness for binding NBS DNA, 0.251:
NRRR

one-hybrid fitness for binding NBS DNA, 0.263:
QTMH

one-hybrid fitness for binding NBS DNA, 0.381:
QRYK

one-hybrid fitness for binding NBS DNA, 0.213:
GMKR

one-hybrid fitness for binding NBS DNA, 0.415:
RVQR

one-hybrid fitness for binding NBS DNA, 0.246:
SFKR
